Experimental data reported in the supplement of paper PMC3334620.
Whole data set: some 33,000 sequences, median “E-score (-0.5 to 0.5)” near -0.016, cut for the highest 2% near 0.31. This is one part of the list.

molecular target: Cst6 (UniProt P40535); assay: PBM E-score (8-mer binding enrichment) (E-score (-0.5 to 0.5)); higher = stronger / more preferred TF binding; most listed sequences are background and not binding sites; conditions: protein concentration: 200 nM; construct: GST-DNA-binding domain
How it was run: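 Using PURExpress in vitro transcription/translation, GST-tagged yeast transcription factors were made in full-length or DNA-binding-domain form. These were applied at about 100-200 nM to double-stranded universal all-10-mer Agilent arrays, and bound protein was detected with fluorescent anti-GST. Scans were normalised with masliner before the Universal PBM Analysis Suite assigned E-scores to ungapped eight-base words pooled with their reverse complements.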

Sequence	PBM E-score
ACCTCCGG	-0.116
AGAATCCA	-0.0573
AAGATATT	0.0924
GTATGTTA	0.182
GATTAGTA	0.0105
CGACTCGC	-0.116
GAGAATTA	0.162
AGGCTACC	-0.254
ATGTTTTG	0.215
CAGTACGG	0.116
GCGTCAGC	0.15
GCTTGCCC	-0.266
CGCTATAC	-0.101
GTACCGTA	-0.0634
GATTGGGC	-0.0234
GGAAAACA	0.0595
CTCTATCA	-0.0627
CAAACGTA	0.234
ACTGACCT	-0.0553
CGATAAAC	0.035
GTCTCAGA	-0.0476
CGAGAATC	-0.091
ATCGACCA	-0.228
ACACAATC	0.168
CCCGCCTA	-0.00914

Sequence	PBM E-score
GGATTAAC	-0.0254
CGTCTAGC	-0.0645
AATAAGAC	0.0549
AAGCCCGA	-0.187
CGCCGCTC	0.187
ATGATATC	0.266
ATGAGCCA	-0.0404
CCCCACGC	-0.334
CAGGGATC	-0.407
GACAAATA	0.22
AGGACTCG	-0.269
TGATTGCA	0.164
ACCCGCAC	-0.056
CAGACGGG	-0.311
AGGATTGC	-0.0703
AAATCCCG	-0.0585
AGACGTTA	0.0355
GACCTTGA	-0.176
AGGTAGGG	-0.178
AAACATCA	0.268
AGAATTCC	-0.00604
GGTGCCAA	-0.104
ACACTTGG	-0.0621
ATCGGCTC	0.0459
ACTTCGAG	0.123

Sequence	PBM E-score
CACTATTC	0.0942
AAGGATGA	0.0593
CATGCACG	0.0931
AAGTTCGG	-0.0277
CTGGACCA	-0.172
AAGAGATG	0.0322
TGTCAGAA	0.173
GCTACAAA	0.108
ACGTTGAA	0.152
ATGCAACC	0.043
CACGTGAG	-0.0105
GCCCGATA	-0.173
CCGCAAAG	0.00041
ACGGTTTC	-0.148
ACGTCTCA	0.141
GCACATAC	-0.148
CTGGTCGA	-0.343
GATAGTTA	0.107
AATTCGAA	0.059
CTAGCTCA	-0.205
CATGGATC	-0.125
AGTATGCC	-0.0681
AGGAGCAA	-0.131
GAGTGGAA	-0.224
AGGGCCAA	-0.298

Sequence	PBM E-score
ACGTCAGC	0.482
AGCCAATC	-0.211
GCTATGAC	0.332
CCGTCACG	0.176
TCCGAGCA	-0.103
ACCTAGCA	-0.128
CCAAAGGC	-0.126
AAGATATG	0.201
GAAGGCAA	0.0691
CGTAGTAA	0.16
AATCCAGG	-0.112
AATGCGAT	0.031
ACAGACGA	-0.0573
ACGAGTGG	-0.15
AGTGATTG	0.0756
CCGGTGGA	-0.277
ATTCTAGA	0.133
ACGTCGTA	0.158
GCAAGACA	-0.108
GTTAATAA	0.12
CTGTCGAC	-0.0944
CCACGGCG	0.309
TGGCCCAA	-0.0679
CCACTCTC	-0.196
CCGACCAA	-0.14

Sequence	PBM E-score
GGGCAGCA	-0.171
AGGCTCGA	0.0255
AGCCCATC	-0.126
ACGACACT	0.134
ACAGTCGC	-0.0759
CAGGCAAG	-0.113
CTGCAGCA	-0.0584
CGCCGCCC	0.024
CTTCAGTA	0.0381
TAAAACCA	0.0493
ATCTGCGC	-0.0927
ACGCGCTA	0.121
GCATGCAA	0.0268
CCAGGTCG	-0.233
AAGGTAGG	0.00569
GAGGAAAA	0.0455
CGATCATA	0.233
AACGGTCT	-0.2
AAACACTG	0.0471
CAGGTCAA	-0.146
GGACGCCC	-0.334
TGGTGAAA	0.189
CACGGATC	0.143
ACCTAAAT	0.051
CTAACTTA	0.136

Sequence	PBM E-score
GAACCAGC	-0.0063
ATAGTGTG	0.114
GCACCTGC	-0.114
GGTCAGGA	-0.182
GGATAGCA	0.0197
CTTCCTAC	-0.329
CTGTTAGA	-0.0218
GGGTCTAC	-0.0672
CACGGCAA	0.302
CACAGGGC	-0.0583
AACATCAG	0.183
TACGGAAA	0.052
CGTGCCCA	-0.0527
AAATGGTC	0.0662
TACCGACA	0.075
ATCTCAGC	-0.024
AAAGCCAT	0.171
CGCATTCC	-0.383
GTGAGTGA	-0.00703
ACCCTAAC	0.0817
AATGATAG	0.174
ATCGTTTG	0.101
GCCAAAGC	-0.235
GACTACAC	0.00552
ATCGCAGA	-0.0225

Sequence	PBM E-score
ACTAAGCG	-0.0685
AAAAAACG	0.212
AACCTCCC	-0.307
CGGTGATA	0.121
GGAATTTA	0.171
AAGCAACT	0.00639
CTATCGCC	-0.117
CAGATTCC	-0.155
CGCTAATC	-0.0707
CCGTTAGC	0.0137
ACCAATCT	0.0703
CTGATGAC	0.292
GCGGATGA	0.149
ATACAATA	0.235
ACCCTCGC	-0.131
CATGAGAG	0.0742
AGGCGTTG	0.101
ACACCTCC	-0.135
GTGGATCA	-0.212
GATGTCCA	0.138
TGAGTGAA	-0.122
GTAGGGCA	-0.0114
